In patent EP4674868A1 (Jiangsu Hengrui Pharmaceuticals Co., Ltd., dated 2026):
Read-outs that look alike come from different tables or passages of the source.

B1: B21546901 (anti-FAP/4-1BB/CD40 trispecific antibody) (other)
heavy: QVQLQQSGVEVKKPGASVTVSCRASGYSFADHFIHWVRQAPGQGFQWMGWINPNRGVTHHAQDFQGRVAMTRDMSTDTVYMELTSLRSDDTAVYYCARDASLTARPYYFYGFDVWGQGTLVTVSS[human IgG1 constant region with changes not given here]GGGGSGGGGSQVQLVESGGGLVQPGGSLRLSCSASGFTFSSYAMSWVRQAPGKGLEWVSDINSGGQSTFYADSVKGRFTISRDNAKNTLYLQMNSLRAEDTAVYYCAKHPLTYTIATMNDYDYWGQGTQVTVSSGGGGSGGGGSEVQLVESGGGLVQPGGSLRLSCAASGFTFSRYGMKWVRQAPGKGLEWVSTINSHGDTTYYADSVKGRFTISRDNAKNSLYLQMNSLRAEDTAVYYCLRIDYSDYSSRGQGTQVTVSAA
light: DIQMTQSPSSVSASVGDRVTITCRASQGISSWLAWYQQKPGKAPKLLIYAASSLQSGVPSRFSGSGSGTDFTLTISSLQPEDFATYYCQQANSFPPAFGQGTKVEIKRTVAAPSVFIFPPSDEQLKSGTASVVCLLNNFYPREAKVQWKVDNALQSGNSQESVTEQDSKDSTYSLSSTLTLSKADYEKHKVYACEVTHQGLSSPVTKSFNRGEC
B2: B977703 (anti-FAP/4-1BB/CD40 trispecific antibody) (other)
heavy: QVQLQQSGVEVKKPGASVTVSCRASGYSFADHFIHWVRQAPGQGFQWMGWINPNRGVTHHAQDFQGRVAMTRDMSTDTVYMELTSLRSDDTAVYYCARDASLTARPYYFYGFDVWGQGTLVTVSS[human IgG1 constant region with changes not given here]GGGGSGGGGSQVQLVESGGGLVQPGGSLRLSCSASGFTFSSYAMSWVRQAPGKGLEWVSDINSGGESTFYEDSVKGRFTISRDNAKNTLYLQMNSLRAEDTAVYYCAKHPLTYTIATMNDYDYWGQGTLVTVSSGGGGSGGGGSEVQLVESGGGLVQPGGSLRLSCAASGFTFSRYGMKWVRQAPGKGLEWVSTINSHGDTTYYADSVKGRFTISRDNAKNSLYLQMNSLRAEDTAVYYCLRIDYSDYSSRGQGTLVTVSS
light: B1 light
B3: B977704 (anti-FAP/4-1BB/CD40 trispecific antibody) (other)
heavy: QVQLQQSGVEVKKPGASVTVSCRASGYSFADHFIHWVRQAPGQGFQWMGWINPNRGVTHHAQDFQGRVAMTRDMSTDTVYMELTSLRSDDTAVYYCARDASLTARPYYFYGFDVWGQGTLVTVSS[human IgG1 constant region with changes not given here]GGGGSGGGGSQVQLVESGGGLVQPGGSLRLSCSASGFTFSSYAMSWVRQAPGKGLEWVSDINSGGESTFYEDSVKGRFTISRDNAKNTLYLQMNSLRAEDTAVYYCAKHPLTYTIATMNDYDYWGQGTLVTVSS
light: DIQMTQSPSSVSASVGDRVTITCRASQGISSWLAWYQQKPGKAPKLLIYAASSLQSGVPSRFSGSGSGTDFTLTISSLQPEDFATYYCQQANSFPPAFGQGTKVEIKRTVAAPSVFIFPPSDEQLKSGTASVVCLLNNFYPREAKVQWKVDNALQSGNSQESVTEQDSKDSTYSLSSTLTLSKADYEKHKVYACEVTHQGLSSPVTKSFNRGECGGGGSGGGGSEVQLVESGGGLVQPGGSLRLSCAASGFTFSRYGMKWVRQAPGKGLEWVSTINSHGDTTYYADSVKGRFTISRDNAKNSLYLQMNSLRAEDTAVYYCLRIDYSDYSSRGQGTLVTVSS

What was measured:
[1] = biological target: T1, human 4-1BB on the surface of HEK293 cells (HEK293-Hu4-1BB) (human, UniProt Q07011 24-255); assay: cell-based or functional assay
T1 sequence (Q07011 24-255): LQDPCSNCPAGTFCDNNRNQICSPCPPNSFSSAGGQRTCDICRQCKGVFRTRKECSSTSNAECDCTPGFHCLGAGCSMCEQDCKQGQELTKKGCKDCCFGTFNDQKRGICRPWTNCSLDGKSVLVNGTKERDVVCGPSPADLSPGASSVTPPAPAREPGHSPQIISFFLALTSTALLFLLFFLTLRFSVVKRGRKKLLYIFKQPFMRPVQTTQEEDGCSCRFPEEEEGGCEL

[2] = biological target: T2, human CD40 on the surface of HEK293 cells (HEK293-HuCD40) (human, UniProt P25942 21-277); assay: cell-based or functional assay
T2 sequence (P25942 21-277): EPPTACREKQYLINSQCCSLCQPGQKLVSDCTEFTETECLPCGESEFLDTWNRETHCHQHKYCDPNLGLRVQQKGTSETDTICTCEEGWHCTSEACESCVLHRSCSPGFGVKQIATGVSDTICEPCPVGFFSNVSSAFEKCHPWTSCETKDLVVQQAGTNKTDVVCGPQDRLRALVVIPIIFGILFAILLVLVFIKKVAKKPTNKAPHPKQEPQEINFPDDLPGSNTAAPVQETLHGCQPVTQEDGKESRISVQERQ

[3] = biological target: T3, human FAP on the surface of CHO-K1 cells (CHO-K1-HuFAP) (human, UniProt Q12884 1-760); assay: FACS, CHO-K1-HuFAP cells
T3 construct: whole, on cells; also called CHO cell line overexpressing human FAP; FAP on the surface of CHO-K1-HuFAP cells

[4] = biological target: T2, human CD40 on the surface of HEK293 …; assay: FACS, HEK293-HuCD40 cells
[5] = biological target: T1, human 4-1BB on the surface of HEK293 …; assay: FACS, HEK293-Hu4-1BB cells
[6] = biological target: T1, human 4-1BB on the surface of HEK293 …; assay: cell-based or functional assay; remark: listed apart in the source
[7] = biological target: T1, human 4-1BB on the surface of HEK293 …; assay: cell-based or functional assay; remark: listed apart in the source
[8] = biological target: T2, human CD40 on the surface of HEK293 …; assay: cell-based or functional assay; remark: listed apart in the source
[9] = biological target: T2, human CD40 on the surface of HEK293 …; assay: cell-based or functional assay; remark: listed apart in the source
[10] = biological target: T3, human FAP on the surface of CHO-K1 …; assay: FACS, CHO-K1-HuFAP cells; remark: listed apart in the source
[11] = biological target: T3, human FAP on the surface of CHO-K1 …; assay: FACS, CHO-K1-HuFAP cells; remark: listed apart in the source
[12] = biological target: T2, human CD40 on the surface of HEK293 …; assay: FACS, HEK293-HuCD40 cells; remark: listed apart in the source
[13] = biological target: T2, human CD40 on the surface of HEK293 …; assay: FACS, HEK293-HuCD40 cells; remark: listed apart in the source
[14] = biological target: T1, human 4-1BB on the surface of HEK293 …; assay: FACS, HEK293-Hu4-1BB cells; remark: listed apart in the source
[15] = biological target: T1, human 4-1BB on the surface of HEK293 …; assay: FACS, HEK293-Hu4-1BB cells; remark: listed apart in the source

Row | Binder | 4-1BB/NF-κB luciferase reporter, CD40-crosslinked, Fold change in Emax [6] | 4-1BB/NF-κB luciferase reporter, FAP-crosslinked, EC50 [6] | 4-1BB/NF-κB luciferase reporter, FAP-crosslinked, Fold change in Emax [6] | 4-1BB/NF-κB luciferase reporter, uncrosslinked, Fold change in Emax [6] | 4-1BB/NF-κB luciferase reporter, CD40-crosslinked, EC50 [7] | 4-1BB/NF-κB luciferase reporter, CD40-crosslinked, Fold change in Emax [7] | 4-1BB/NF-κB luciferase reporter, FAP-crosslinked, EC50 [7] | 4-1BB/NF-κB luciferase reporter, FAP-crosslinked, Fold change in Emax [7] | 4-1BB/NF-κB luciferase reporter, uncrosslinked, Fold change in Emax [7] | CD40/NF-κB reporter (HEK-Blue CD40L), 4-1BB-crosslinked, EC50 [8] | CD40/NF-κB reporter (HEK-Blue CD40L), 4-1BB-crosslinked, Fold change in Emax [8] | CD40/NF-κB reporter (HEK-Blue CD40L), FAP-crosslinked, EC50 [8] | CD40/NF-κB reporter (HEK-Blue CD40L), FAP-crosslinked, Fold change in Emax [8] | CD40/NF-κB reporter (HEK-Blue CD40L), uncrosslinked, Fold change in Emax [8] | CD40/NF-κB reporter (HEK-Blue CD40L), 4-1BB-crosslinked, EC50 [9] | CD40/NF-κB reporter (HEK-Blue CD40L), 4-1BB-crosslinked, Fold change in Emax [9] | CD40/NF-κB reporter (HEK-Blue CD40L), FAP-crosslinked, EC50 [9] | CD40/NF-κB reporter (HEK-Blue CD40L), FAP-crosslinked, Fold change in Emax [9] | CD40/NF-κB reporter (HEK-Blue CD40L), uncrosslinked, Fold change in Emax [9] | EC50 [10] | other results
1 | B1 |  |  |  |  |  |  |  |  |  |  |  |  |  |  |  |  |  |  |  |  | 4-1BB/NF-κB luciferase reporter, CD40-crosslinked, EC50 [1]: 0.02 nM; 4-1BB/NF-κB luciferase reporter, CD40-crosslinked, Fold change in Emax [1]: 4.61 fold; 4-1BB/NF-κB luciferase reporter, FAP-crosslinked, EC50 [1]: 0.07 nM; 4-1BB/NF-κB luciferase reporter, FAP-crosslinked, Fold change in Emax [1]: 15 fold; 4-1BB/NF-κB luciferase reporter, uncrosslinked, Fold change in Emax [1]: 1.34 fold; CD40/NF-κB reporter (HEK-Blue CD40L), 4-1BB-crosslinked, EC50 [2]: 3.97 nM; CD40/NF-κB reporter (HEK-Blue CD40L), 4-1BB-crosslinked, Fold change in Emax [2]: 7.87 fold; CD40/NF-κB reporter (HEK-Blue CD40L), FAP-crosslinked, EC50 [2]: 0.66 nM; CD40/NF-κB reporter (HEK-Blue CD40L), FAP-crosslinked, Fold change in Emax [2]: 11.8 fold; CD40/NF-κB reporter (HEK-Blue CD40L), uncrosslinked, Fold change in Emax [2]: 3.41 fold; EC50 [3]: 1.71 nM; Maximum fluorescence value [3]: 68700; EC50 [4]: 4.17 nM; Maximum fluorescence value [4]: 66500; EC50 [5]: 0.5 nM; Maximum fluorescence value [5]: 10800
2 | B2 | 8.23 fold | 0.221 nM | 12.7 fold | 1.53 fold | 0.07 nM | 4.37 fold | 0.173 nM | 7.71 fold | 1.14 fold | 0.309 nM | 8.79 fold | 0.013 nM | 11.7 fold | 8.63 fold | 1.33 nM | 6.52 fold | 0.19 nM | 8.3 fold | 6.09 fold | 2.23 nM | Maximum fluorescence value [10]: 121000; EC50 [11]: 1.24 nM; Maximum fluorescence value [11]: 60700; EC50 [12]: 4.05 nM; Maximum fluorescence value [12]: 79700; EC50 [13]: 5.29 nM; Maximum fluorescence value [13]: 63300; EC50 [14]: 0.36 nM; Maximum fluorescence value [14]: 8640; EC50 [15]: 0.402 nM; Maximum fluorescence value [15]: 10800
3 | B3 | 8.41 fold | 0.142 nM | 10.9 fold | 1.54 fold | 0.033 nM | 5.5 fold | 0.146 nM | 7.98 fold | 1.01 fold | 0.071 nM | 10.7 fold | 0.017 nM | 10.9 fold | 4.79 fold | 0.253 nM | 5.92 fold | 0.137 nM | 6.75 fold | 2.92 fold | 2.24 nM | 4-1BB/NF-κB luciferase reporter, CD40-crosslinked, EC50 [6]: 0.054 nM; Maximum fluorescence value [10]: 127000; EC50 [11]: 0.92 nM; Maximum fluorescence value [11]: 67000; EC50 [12]: 6.54 nM; Maximum fluorescence value [12]: 75600; EC50 [13]: 4.24 nM; Maximum fluorescence value [13]: 63800; EC50 [14]: 0.332 nM; Maximum fluorescence value [14]: 8520; EC50 [15]: 0.227 nM; Maximum fluorescence value [15]: 10600
